Numbers after ± are expanded uncertainties.
Experiment: molar heat capacity at constant pressure
Settings: 101.33 kPa

CC(=O)N(C)C [N,N-dimethylethanamide]
Crystal
Settings	molar heat capacity at constant pressure [J/K/mol]
200 K	117.6 ± 0.6
202.32 K	118.7 ± 0.7
202.75 K	118.7 ± 0.7
205.72 K	120.2 ± 0.7
206.44 K	120.8 ± 0.7
208.68 K	121.8 ± 0.7
209.51 K	122 ± 0.7
210 K	122.5 ± 0.6
212.79 K	123.8 ± 0.7
216.21 K	126.5 ± 0.7
217.95 K	127.4 ± 0.7
219.32 K	127.6 ± 0.7
220 K	128.2 ± 0.7
220.71 K	128.8 ± 0.7
220.98 K	128.4 ± 0.7
222.21 K	129.5 ± 0.7
222.65 K	128.8 ± 0.7
222.94 K	129.4 ± 0.7
223.63 K	130.1 ± 0.7
223.68 K	130 ± 0.7
226.52 K	131.4 ± 0.7
226.59 K	131 ± 0.7
226.87 K	132 ± 0.7
227.31 K	131.5 ± 0.7
229.5 K	132.3 ± 0.7
229.7 K	132.6 ± 0.7
230 K	133.7 ± 0.7
230.65 K	134.2 ± 0.7
230.87 K	134.2 ± 0.7
230.97 K	134.3 ± 0.7
232.41 K	134.1 ± 0.7
232.93 K	135.1 ± 0.7
233.15 K	135 ± 0.7
234.73 K	137.4 ± 0.7
234.88 K	135.6 ± 0.7
235.31 K	136.9 ± 0.7
236.3 K	137 ± 0.7
237.01 K	139 ± 0.7
237.7 K	139.8 ± 0.7
238.2 K	139.8 ± 0.7
238.37 K	140.1 ± 0.7
238.79 K	141.8 ± 0.7
239.42 K	143.3 ± 0.8
240 K	138.8 ± 0.7
240.09 K	142.6 ± 0.8
240.59 K	144.8 ± 0.8
241.4 K	144.6 ± 0.8
242.01 K	145.3 ± 0.8
250 K	144 ± 0.7
254.23 K	146.1 ± 0.7

Liquid, Vacuum adiabatic calorimetry
Settings	molar heat capacity at constant pressure [J/K/mol]
249.41 K	166.9 ± 0.7
252.43 K	167 ± 0.7
253.91 K	167.9 ± 0.7
254.23 K	167.7 ± 0.4
255.94 K	167.5 ± 0.7
256.94 K	168.2 ± 0.7
259.44 K	167.8 ± 0.7
260 K	168.5 ± 0.4
260.45 K	168.7 ± 0.7
260.47 K	168.7 ± 0.7
263.48 K	169.1 ± 0.7
263.99 K	169.4 ± 0.7
265.33 K	169.2 ± 0.7
267.51 K	169.5 ± 0.7
267.87 K	169.4 ± 0.7
270 K	169.6 ± 0.4
271.02 K	169.8 ± 0.7
274.3 K	169.7 ± 0.7
274.53 K	170.2 ± 0.7
274.54 K	169.9 ± 0.7
276.6 K	169.9 ± 0.7
278.04 K	170.5 ± 0.7
280 K	170.5 ± 0.4
280.12 K	170.4 ± 0.7
280.93 K	170.9 ± 0.7
281.54 K	170.8 ± 0.7
284.16 K	170.9 ± 0.7
284.94 K	170.9 ± 0.7
285.04 K	171 ± 1
288.18 K	171.2 ± 0.7
288.53 K	171.7 ± 0.7
288.92 K	171.3 ± 0.7
290 K	171.6 ± 0.4
292.01 K	172.8 ± 0.8
292.02 K	172.1 ± 0.7
292.2 K	171.7 ± 0.7
292.89 K	171.8 ± 0.7
294.08 K	172.1 ± 0.7
295.5 K	172.7 ± 0.7
296.21 K	172.1 ± 0.7
296.85 K	172.4 ± 0.7
298.09 K	172.6 ± 0.7
298.15 K	172.7 ± 0.4
298.96 K	173.2 ± 0.7
300 K	173 ± 0.4
300.21 K	172.9 ± 0.7
300.79 K	173.2 ± 0.7
302.08 K	173.4 ± 0.7
302.42 K	173.6 ± 0.7
304.19 K	173.5 ± 0.7
304.71 K	173.6 ± 0.7
305.86 K	174.2 ± 0.7
306.05 K	174.2 ± 0.7
308.16 K	174.3 ± 0.7
308.61 K	174.4 ± 0.7
309.21 K	174.8 ± 0.7
310 K	174.7 ± 0.4
310.02 K	174.9 ± 0.8
312.13 K	175.1 ± 0.8
312.48 K	174.9 ± 0.8
312.6 K	175.5 ± 0.8
315.97 K	175.9 ± 0.8
316.07 K	175.8 ± 0.8
316.34 K	175.8 ± 0.8
319.33 K	176.5 ± 0.8
320 K	176.8 ± 0.4
320.01 K	176.8 ± 0.8
320.16 K	176.8 ± 0.8
322.66 K	177.3 ± 0.8
323.96 K	177.9 ± 0.8
325.97 K	178.2 ± 0.8
327.75 K	178.6 ± 0.8
329.23 K	178.7 ± 0.8
330 K	179.1 ± 0.4
331.51 K	179.5 ± 0.8
332.48 K	179.5 ± 0.8
335.71 K	180.6 ± 0.8
340 K	181.6 ± 0.4

Reference: the NIST ThermoML archive (doi:10.1016/j.jct.2007.02.009)
